Source: the supplement of paper PMC11876631
± gives the standard deviation of the averaged measurements. Laboratory Escherichia coli strains with one amino-acid change in an essential protein, pooled on minimal glucose agar with carbenicillin or gentamicin at twice the control MIC (plus kanamycin and chloramphenicol for the plasmids), 48 h. Fold change of barcode share against drug-free plates; higher = less susceptible. Active = above 20 in both replicates (the paper's putatively resistant). '<' = one read or none on drug, '>' = one read or none on a drug-free plate. Shares are relative, so most strains fall below 1 when a few take over. Listed are strains with at least 15 reads on both drug-free plates, and hits; most hits rest on fewer reference reads. Replicate rank correlation about 0.5. Edits are read from barcodes.

Target: Escherichia coli (laboratory strain)
Assay: barcode share on antibiotic plates over drug-free plates; higher = less susceptible
Description: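 A pool of E. coli strains, each edited to carry one amino-acid change in an essential protein, was grown for 48 h on minimal glucose agar with or without antibiotic; strain barcodes were sequenced; mean of two replicates.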

[1] = antibiotic: carbenicillin, 2× MIC (3.1 µg/mL)
[2] = antibiotic: gentamicin, 2× MIC (MIC 0.45 µg/mL)

Protein	fold change of barcode share [1]	fold change of barcode share [2]
metB V207A (protein) MTRKQATIAVRSGLNDDEQYGCVVPPIHLSSTYNFTGFNEPRAHDYSRRGNPTRDVVQRALAELEGGAGAVLTNTGMSAIHLVTTVFLKPGDLLVAPHDCYGGSYRLFDSLAKRGCYRVLFVDQGDEQALRAALAEKPKLVLVESPSNPLLRVVDIAKICHLAREVGAVSVVDNTFLSPALQNPLALGADLVLHSCTKYLNGHSDVAAGVVIAKDPDVVTELAWWANNIGVTGGAFDSYLLLRGLRTLVPRMELAQRNAQAIVKYLQTQPLVKKLYHPSLPENQGHEIAARQQKGFGAMLSFELDGDEQTLRRFLGGLSLFTLAESLGGVESLISHAATMTHAGMAPEARAAAGISETLLRISTGIEDGEDLIADLENGFRAANKG	0.386 ± 0.1	0.00723 ± 0.0044
metB V207W (protein) MTRKQATIAVRSGLNDDEQYGCVVPPIHLSSTYNFTGFNEPRAHDYSRRGNPTRDVVQRALAELEGGAGAVLTNTGMSAIHLVTTVFLKPGDLLVAPHDCYGGSYRLFDSLAKRGCYRVLFVDQGDEQALRAALAEKPKLVLVESPSNPLLRVVDIAKICHLAREVGAVSVVDNTFLSPALQNPLALGADLVLHSCTKYLNGHSDVWAGVVIAKDPDVVTELAWWANNIGVTGGAFDSYLLLRGLRTLVPRMELAQRNAQAIVKYLQTQPLVKKLYHPSLPENQGHEIAARQQKGFGAMLSFELDGDEQTLRRFLGGLSLFTLAESLGGVESLISHAATMTHAGMAPEARAAAGISETLLRISTGIEDGEDLIADLENGFRAANKG	0.408 ± 0.014	0.0103 ± 0.0072
metB V207Q (protein) MTRKQATIAVRSGLNDDEQYGCVVPPIHLSSTYNFTGFNEPRAHDYSRRGNPTRDVVQRALAELEGGAGAVLTNTGMSAIHLVTTVFLKPGDLLVAPHDCYGGSYRLFDSLAKRGCYRVLFVDQGDEQALRAALAEKPKLVLVESPSNPLLRVVDIAKICHLAREVGAVSVVDNTFLSPALQNPLALGADLVLHSCTKYLNGHSDVQAGVVIAKDPDVVTELAWWANNIGVTGGAFDSYLLLRGLRTLVPRMELAQRNAQAIVKYLQTQPLVKKLYHPSLPENQGHEIAARQQKGFGAMLSFELDGDEQTLRRFLGGLSLFTLAESLGGVESLISHAATMTHAGMAPEARAAAGISETLLRISTGIEDGEDLIADLENGFRAANKG	0.458 ± 0.028	0.00787 ± 0.00061
metB V207P (protein) MTRKQATIAVRSGLNDDEQYGCVVPPIHLSSTYNFTGFNEPRAHDYSRRGNPTRDVVQRALAELEGGAGAVLTNTGMSAIHLVTTVFLKPGDLLVAPHDCYGGSYRLFDSLAKRGCYRVLFVDQGDEQALRAALAEKPKLVLVESPSNPLLRVVDIAKICHLAREVGAVSVVDNTFLSPALQNPLALGADLVLHSCTKYLNGHSDVPAGVVIAKDPDVVTELAWWANNIGVTGGAFDSYLLLRGLRTLVPRMELAQRNAQAIVKYLQTQPLVKKLYHPSLPENQGHEIAARQQKGFGAMLSFELDGDEQTLRRFLGGLSLFTLAESLGGVESLISHAATMTHAGMAPEARAAAGISETLLRISTGIEDGEDLIADLENGFRAANKG	0.601 ± 0.063	0.0117 ± 0.0047
metB V210A (protein) MTRKQATIAVRSGLNDDEQYGCVVPPIHLSSTYNFTGFNEPRAHDYSRRGNPTRDVVQRALAELEGGAGAVLTNTGMSAIHLVTTVFLKPGDLLVAPHDCYGGSYRLFDSLAKRGCYRVLFVDQGDEQALRAALAEKPKLVLVESPSNPLLRVVDIAKICHLAREVGAVSVVDNTFLSPALQNPLALGADLVLHSCTKYLNGHSDVVAGAVIAKDPDVVTELAWWANNIGVTGGAFDSYLLLRGLRTLVPRMELAQRNAQAIVKYLQTQPLVKKLYHPSLPENQGHEIAARQQKGFGAMLSFELDGDEQTLRRFLGGLSLFTLAESLGGVESLISHAATMTHAGMAPEARAAAGISETLLRISTGIEDGEDLIADLENGFRAANKG	0.323 ± 0.17	< 0.00471
metB V210W (protein) MTRKQATIAVRSGLNDDEQYGCVVPPIHLSSTYNFTGFNEPRAHDYSRRGNPTRDVVQRALAELEGGAGAVLTNTGMSAIHLVTTVFLKPGDLLVAPHDCYGGSYRLFDSLAKRGCYRVLFVDQGDEQALRAALAEKPKLVLVESPSNPLLRVVDIAKICHLAREVGAVSVVDNTFLSPALQNPLALGADLVLHSCTKYLNGHSDVVAGWVIAKDPDVVTELAWWANNIGVTGGAFDSYLLLRGLRTLVPRMELAQRNAQAIVKYLQTQPLVKKLYHPSLPENQGHEIAARQQKGFGAMLSFELDGDEQTLRRFLGGLSLFTLAESLGGVESLISHAATMTHAGMAPEARAAAGISETLLRISTGIEDGEDLIADLENGFRAANKG	0.343 ± 0.17	0.0365 ± 0.043
